“And” between values parts separate entries of the source, which are not always exact repeats. Equal values may be shown once.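 These data come from cells grown in 96-well plates and exposed to compound for 48 hours at five concentrations. GI50 marks 50% less growth. TGI denotes the concentration required for complete inhibition of growth.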
The molecules below were run on NCI-H322M lung (assay: NCI tumour cell line growth inhibition, 48 h).

| Compound | TGI | GI50 |
| --- | --- | --- |
| Cc1ccc(C)c(NC(=O)/C(=N\N)C(c2cnc3ccc([N+](=O)[O-])cc3n2)[N+](=O)[O-])c1 (stereo unspecified) | > 100 µM |  |
| Cc1ccc(C)c(NC(=O)C(=O)CC(=O)c2cccc3ccccc23)c1 | > 100 µM |  |
| Oc1[nH]c2ccc(Cl)cc2c1/C=c1/ccc2c(c1)N=C(c1ccc(C(F)(F)F)cc1)N=2 | 49 µM | 4.63 µM |
| COc1ccccc1N(C(C)=O)C1=C(Cl)C(=O)c2ccccc2C1=O | 13.2 µM | 3.26 µM |
| O=Cc1c[nH]c2ccc(-c3csc4ccccc34)cc12 | > 100 µM | 6.27 µM |
| CSc1ncc2c(C#N)c3ccccn3c(=O)c2n1 | > 100 µM |  |
| C=CCN1C(=O)/C(=C/c2ccccc2)N=C1SC1OC(COC(C)=O)C(OC(C)=O)C(OC(C)=O)C1OC(C)=O (stereo unspecified) | 53 µM |  |
| O=C1NC2(NC(=O)C1=O)Nc1ccccc1S2 | > 100 µM |  |
| CCSC1=C(C#N)C2(CCCCC2)C2=C(CC(C)(C)CC2=O)N1 | 61.6 µM |  |
| COc1cc(-c2ccc(Nc3ccccc3C(=O)O)c(OC)c2)ccc1Nc1ccccc1C(=O)O | > 93.4 µM |  |
| N=c1oc2ccc([N+](=O)[O-])cc2cc1C(=O)Nc1ccccn1 | > 100 µM |  |
| CC1(C)C(=O)CCC(=O)C(C)(C)C2=CC=C(O2)C(C)(C)C(=O)CCC(=O)C(C)(C)C2=CC=C1O2 | > 100 µM |  |
| O=C(Cc1nc2ccc(C(=O)c3ccccc3)cc2[nH]c1=O)C(=O)Nc1ccc(C(F)(F)F)cc1[N+](=O)[O-] | > 100 µM |  |
| Cn1c2c(c3ccccc31)CC(=O)N1CCCC(C1)CC21OCCO1 (stereo unspecified) | > 100 µM |  |
| COc1cc(-c2ccccc2)c(OC)cc1CCl | > 100 µM |  |
| CC(=O)Nc1cc(C(c2ccccc2)c2ccccc2)cc(C(c2ccccc2)c2ccccc2)c1C | > 100 µM | > 100 µM |
| COc1cc(CC(C)N[C@@H](C)c2ccccc2)cc(OC)c1 (stereo partly specified) | > 100 µM |  |
| O=C1NC(=O)/C(=C/c2ccc(S(=O)(=O)N/N=C/c3ccccc3)cc2)N1 | > 100 µM |  |
| N#Cc1ccc(N2Cc3cc(Cl)ccc3OC3=C2C(=O)N(Cc2ccc(F)cc2)C3=O)cc1 | 22.2 µM | 8.86 µM |
| N#Cc1nc(-c2ccccc2O)oc1N | > 100 µM |  |
| O=[N+]([O-])c1ccc(OP(=O)(O)OCC2OC(CP(=O)(O)O)C(O)C2O)cc1 (stereo unspecified) | > 100 µM |  |
| CC(=O)OCC1OC(N2C(=O)CC(N)=Nc3ccccc32)C(OC(C)=O)C(OC(C)=O)C1OC(C)=O (stereo unspecified) | > 100 µM |  |
| COC(=O)c1c2c(c(C)[n+]([O-])c1C)C(=O)C=C(NCc1ccc(Br)cc1)C2=O | 1.85 µM | 0.546 µM |
| Cc1cc2oc(=O)c(Cl)c(Cl)c2c(C)c1Cl | 31.4 µM |  |
| O=[N+]([O-])c1ccc(N/N=C/c2ccccc2O)nc1 | > 100 µM | 1.96 µM |

| Compound | TGI | GI50 |
| --- | --- | --- |
| CC(N)CN.CC(N)CN.[Cl-].[O]=[Os+2]=[O] (stereo unspecified) | > 100 µM | > 100 µM |
| Cc1ccc(O)c(-c2cc(-c3ccccc3)nc(/N=C\c3ccccc3)n2)c1 | > 100 µM |  |
| C=CC(Br)(CBr)CCC(Br)C(C)(C)Br (stereo unspecified) | 26.9 µM |  |
| C/C(=C\CCc1ccsc1)CC/C=C(\C)CCCN1CCN(CCO)CC1 | 20.5 µM | 5.95 µM |
| S=C(Nc1ccc(Cl)cc1)SC1CCCCC1 | 90.2 µM |  |
| CC(=O)C1=C(C)N(c2ccc(C)cc2)C2(O)C=CC(=O)C3=C(O)c4ccccc4C(=O)C312 (stereo unspecified) | 45.5 µM |  |
| c1ccc(CNCCCNCCCCNCCCNCc2ccccc2)cc1 | 31.7 µM |  |
| COC1=CCC2=C(CCN(C(=O)C3CC3)C2Cc2ccc(OC)c(O)c2)C1 (stereo unspecified) | > 100 µM |  |
| Nc1ncnc2c1nc(N)n2C1OC(CO)C(O)C1O (stereo unspecified) | 1.02 µM | 0.23 µM |
| [CH3][Sn]([CH3])([CH3])[O]C(=O)C(O)c1ccccc1 (stereo unspecified) | > 89.7 µM | 8.7 µM |
| CN=c1ss/c(=N\C(=S)N(C)C)n1C1CCCCC1 | > 31.6 µM |  |
| Cc1ccc(-n2nnc3c(sc4ccccc43)c2=O)cc1 | > 100 µM | 5.85 µM |
| Cc1cn(C2CC(N=[N+]=[N-])C(CO)O2)c(=O)[nH]c1=O (stereo unspecified) | > 1000 µM | 959 µM |
| NC(CCC(=O)NC(CSC(=O)N(O)c1ccc(Cl)cc1)C(=O)NCC(=O)O)C(=O)O (stereo unspecified) | > 0.5 µM |  |
| COc1cc(-c2nccc3[nH]c(-c4cccc5[nH]ccc45)nc23)cc(OC)c1OC | 19 µM | < 0.01 µM |
| Cc1ccc2c(n1)C(=O)C(Cl)=C(Nc1ccc(N3CCN(C)CC3)cc1)C2=O | 30 µM | 16.4 µM |
| O=c1c2cc(Br)ccc2[nH]c(=S)n1-c1ccccc1 | > 100 µM |  |
| NS(=O)(=O)c1cccc(-c2cc3ccncc3cc2OCc2ccccc2)c1 | > 25 µM | > 23.3 µM |
| O=C(OCC(Cl)(Cl)Cl)N1CC[C@@H](C2CCCCC2)C1 | > 100 µM |  |
| Clc1cc2nnn(C3CCCCO3)c2cc1Cl (stereo unspecified) | > 100 µM |  |
| C=C1C(=O)O[C@H]2[C@H]1CC/C(COC(=O)c1cccc3ccccc13)=C\CC[C@@]1(C)O[C@@H]21 | 4.98 µM | 2.15 µM |
| O=CN(O)CC(=O)O.[Ni] | > 100 µM |  |
| O=C1CSc2sc(=S)sc2S1 | > 100 µM |  |
| CNC(=O)C1CCC(=O)N1CN(C(C)=O)c1ccccc1 (stereo unspecified) | > 100 µM |  |
| C[As](C)SCC(NC(=O)CCC(N)C(=O)O)C(=O)NCC(=O)O.Cl.c1ccncc1 (stereo unspecified) | 4.43 µM |  |

| Compound | TGI | GI50 |
| --- | --- | --- |
| O=C(O)/C(=C/c1ccccc1[N+](=O)[O-])c1cccs1 | > 100 µM |  |
| O=S(=O)(CC(O)C(Cl)(Cl)Cl)NNc1ccccc1 (stereo unspecified) | > 100 µM |  |
| Nc1cccc(/C=C/CN2CCN(CCOC(c3ccccc3)c3ccccc3)CC2)c1 | 27.8 µM |  |
| O=C(O)c1ccccc1-c1ccccc1C(=O)Nc1ccc2c(c1)Cc1ccccc1-2 | > 100 µM |  |
| COc1ccc2oc(-c3cc4cc(OC)ccc4o3)cc2c1 | > 100 µM |  |
| CCOc1ccc(/C=N\N2C(=O)c3ccccc3C2=O)cc1 | > 100 µM |  |
| CC(=O)N1N=C(c2ccc3ccccc3c2O)CC1c1ccc(Cl)cc1Cl (stereo unspecified) | > 100 µM |  |
| O=C1c2cccc3cccc(c23)C(=O)N1CC#Cc1ccc2c3c(cccc13)C(=O)N(CCN1CCNCC1)C2=O | 23.5 µM | 10.1 µM |
| NC(Cc1ccc(O)cc1)C(=O)N/N=C/c1ccc(N(CCCl)CCCl)cc1 (stereo unspecified) | > 100 µM | 39.9 µM |
| COc1ccc(Oc2nc(Nc3ccc(N4CCOCC4)cc3)ncc2NC(=O)Nc2cc(OC)cc(OC)c2)cc1 | 9.11 µM | 2.17 µM |
| COc1ccc(C2=NNC(c3cc(Cc4ccc(O)c(C5CC(c6ccc(OC)cc6)=NN5)c4)ccc3O)C2)cc1 (stereo unspecified) | > 100 µM | 21.7 µM |
| CC(=O)OCC1=C2C(OC(=O)C(C)C)CC3(COC(C)=O)OC3/C=C\C3(C)OC3C2OC1=O (stereo unspecified) | > 100 µM |  |
| NS(=O)(=O)c1ccc(N=Nc2ccc(O)c(O)c2)cc1 | 64.8 µM |  |
| CN(C(=O)C12C3C4C1C1C2C3C41C(=O)N(C)C(C)(C)C)C(C)(C)C (stereo unspecified) | > 50 µM |  |
| c1ccc2c(c1)ccc1nc3ccccn3c12 | > 100 µM |  |
| O=[N+]([O-])c1ccc(Oc2cccc(C(F)(F)F)c2)c([N+](=O)[O-])c1 | 23.7 µM | 11.1 µM |
| O=C1c2ccccc2C(=O)c2c(NCCNCCO)ccc(NCCNCCO)c21 | 6.84 µM and 6.26 µM and 6.93 µM | 1.89 µM and 1.52 µM and 2.15 µM |
| CCOC(=O)C(Cc1ccc2c(c1)CCC2)Cc1ccc2c(c1)CCC2 | > 100 µM |  |
| COc1ccc2c(c1)CC[C@@H]1C2CC[C@]2(C)C(=O)N(CCN3CCCCC3)C(=O)CC12 (stereo partly specified) | > 100 µM |  |
| COc1ccc(N2C(=O)C(C#N)=C(SC)C(C#N)C2=O)cc1 (stereo unspecified) | > 100 µM |  |
| Cc1no[n+]([O-])c1/C=N/NS(=O)(=O)c1ccccc1 | > 100 µM |  |
| CCCC(=O)n1[nH]c(=O)n(C(C)(C)C)c1=O | > 100 µM |  |
| O=C(O)CN(CC(=O)O)c1ccccc1 | > 100 µM |  |
